29 compounds from the antibiotic and cytotoxicity screens of Wong et al. (2023) can be followed below.

The subject of one assay is HSkMC. The assay is described as follows: cytotoxicity call (relative viability < 0.9). The following applies: 10 µM.
The next assay deals with HepG2. In words: cytotoxicity call (relative viability < 0.9). The following applies: 10 µM.
A further assay concerns S. aureus RN4220. In words: growth inhibition call (relative growth <= 0.2). Particulars: 50 µM.

Some of the results follow.

As for `COC(=O)c1c(C)c2c(c(C)c1OC)OC(=O)c1c(C)c(Cl)c(OC)c(Cl)c1O2`, the cytotoxicity call in the assay on HSkMC and in the assay on HepG2 was “inactive” each time. Further, the growth inhibition call with S. aureus RN4220 is “inactive”.
`C[C@@H]1CN([C@@H](C)CO)C(=O)c2cc(NC(=O)Cc3cn(C)c4ccccc34)ccc2O[C@@H]1CN(C)C(=O)Nc1cccc2ccccc12`: the cytotoxicity call in the assay on HSkMC and in the assay with HepG2 was “active” throughout. The growth inhibition call in the assay with S. aureus RN4220 is “inactive”.
Turning to `O=C(C[C@H]1CC[C@@H]2[C@H](COC[C@@H](O)CN2S(=O)(=O)c2ccc(Cl)cc2)O1)N[C@H]1CCN(Cc2ccccc2)C1`, the cytotoxicity call in the assay on HSkMC and with HepG2 was “inactive” in each case. The growth inhibition call in the assay with S. aureus RN4220 is “inactive”.
Regarding `Cc1ccc(S(=O)(=O)N(C)C[C@H]2Oc3ccc(NC(=O)CCN4CCOCC4)cc3C(=O)N([C@@H](C)CO)C[C@H]2C)cc1`, the cytotoxicity call in the assay with HSkMC and in the assay with HepG2 was “inactive” throughout. In the assay on S. aureus RN4220, the growth inhibition call is “inactive”.
In the case of `C[C@H](CO)N1C[C@H](C)[C@@H](CN(C)S(=O)(=O)c2ccc(Cl)cc2)OCCCC[C@H](C)Oc2ccc(NC(=O)CCC(F)(F)F)cc2C1=O`, the cytotoxicity call in the assay on HSkMC and with HepG2 was “inactive” each time. Further, the growth inhibition call in the assay with S. aureus RN4220 is “inactive”.
Consider `Cc1ccc(S(=O)(=O)Nc2ccc3c(c2)C(=O)N([C@@H](C)CO)C[C@@H](C)[C@@H](CN(C)C(=O)Nc2ccc(C(F)(F)F)cc2)OCCCC[C@H](C)O3)cc1`, for which the cytotoxicity call with HSkMC and in the assay on HepG2 was “inactive” in each case. Moreover, the growth inhibition call with S. aureus RN4220 was “inactive”.
Consider `N[C@@H](C(=O)N[C@@H]1C(=O)N2C(C(=O)O)=C(Cl)CC[C@H]12)c1ccccc1`, for which the cytotoxicity call in the assay on HSkMC and with HepG2 was “inactive” throughout. Besides, the growth inhibition call with S. aureus RN4220 is “active”.
Regarding `COc1ccc(NC(=O)N(C)C[C@H]2OCCCC[C@@H](C)Oc3ccc(NC(=O)CCC(F)(F)F)cc3C(=O)N([C@H](C)CO)C[C@H]2C)cc1`, the cytotoxicity call in the assay on HSkMC and with HepG2 was “inactive” throughout. The growth inhibition call in the assay with S. aureus RN4220 was “inactive”.
Take `CC(=O)OCC(=O)C1(O)CCC2C3CCC4=CC(=O)CCC4(C)C3C(O)CC21C` (configuration not stated): the cytotoxicity call in the assay with HSkMC and in the assay with HepG2 was “inactive” in each case. Besides, the growth inhibition call in the assay on S. aureus RN4220 was “inactive”.
Regarding `C[C@@H]1CCCCO[C@@H](CN(C)C(=O)Nc2ccccc2)[C@H](C)CN([C@@H](C)CO)C(=O)c2cc(NS(=O)(=O)c3ccc(Cl)cc3)ccc2O1`, the cytotoxicity call in the assay on HSkMC and in the assay on HepG2 was “inactive” in each case. Further, the growth inhibition call in the assay with S. aureus RN4220 is “inactive”.
`Cc1ccc(S(=O)(=O)N(C)C[C@H]2Oc3c(NC(=O)c4cc(C)nn4C)cccc3C(=O)N([C@H](C)CO)C[C@H]2C)cc1`: the cytotoxicity call in the assay on HSkMC and in the assay on HepG2 was “inactive” throughout. Moreover, in the assay with S. aureus RN4220, the growth inhibition call is “inactive”.
Turning to `O=C1Nc2ccccc2Oc2cc(Sc3ccccc3)ccc21`, the cytotoxicity call in the assay with HSkMC and with HepG2 was “inactive” each time. Moreover, the growth inhibition call in the assay on S. aureus RN4220 was “inactive”.
For the compound `Cc1noc(C)c1S(=O)(=O)N(C)C[C@@H]1OCCCC[C@H](C)Oc2ccc(N(C)C)cc2C(=O)N([C@H](C)CO)C[C@@H]1C`, the cytotoxicity call in the assay with HSkMC and with HepG2 was “inactive” each time. The growth inhibition call in the assay on S. aureus RN4220 is “inactive”.
With `C=CCOC1=N[C@@H]2[C@@H](C(=O)N(C)C(=O)N2C)N1C`, the cytotoxicity call in the assay with HSkMC and in the assay with HepG2 was “inactive” throughout. The growth inhibition call in the assay on S. aureus RN4220 was “inactive”.
Consider `C[C@H]1CCCCO[C@H](CN(C)C(=O)C2CCCCC2)[C@@H](C)CN([C@@H](C)CO)C(=O)c2cc(NC(=O)Nc3ccc(F)cc3)ccc2O1`, for which, in the assay on HSkMC, the cytotoxicity call was “inactive”. For the same compound, the cytotoxicity call in the assay with HepG2 is “active”. Further, in the assay on S. aureus RN4220, the growth inhibition call was “inactive”.
With `C[C@]1(C(=O)NCc2ccccc2)c2ccccc2C(=O)N(Cc2ccc(OC(F)(F)F)cc2)[C@H]1c1ccc(CO)cc1`, the cytotoxicity call with HSkMC and in the assay with HepG2 was “inactive” in each case. Moreover, in the assay on S. aureus RN4220, the growth inhibition call is “inactive”.
For `COCC#Cc1cnc2c(c1)C(=O)N([C@H](C)CO)C[C@@H](C)[C@@H](CN(C)S(=O)(=O)c1ccccc1)O2`, the cytotoxicity call in the assay with HSkMC and with HepG2 was “inactive” throughout. Further, the growth inhibition call in the assay with S. aureus RN4220 was “inactive”.
Turning to `C[C@@H]1CN([C@H](C)CO)C(=O)c2cc(N(C)C)ccc2O[C@@H]1CN(C)S(=O)(=O)c1ccc(Cl)cc1`, the cytotoxicity call with HSkMC and in the assay with HepG2 was “inactive” each time. Besides, in the assay on S. aureus RN4220, the growth inhibition call was “inactive”.
On to `C[C@@H]1CN([C@H](C)CO)C(=O)c2cc(-c3ccc(C(=O)N(C)C)cc3)cnc2O[C@@H]1CN(C)C(=O)C1CC1`, for which the cytotoxicity call with HSkMC and with HepG2 was “inactive” each time. The growth inhibition call in the assay with S. aureus RN4220 is “inactive”.
Regarding `NC(=O)c1cccnc1`, the cytotoxicity call in the assay on HSkMC and in the assay on HepG2 was “inactive” throughout. The growth inhibition call in the assay on S. aureus RN4220 is “inactive”.
With `CCOC(=O)c1c(NC(C)=O)no[n+]1[O-]`, the cytotoxicity call in the assay with HSkMC and in the assay on HepG2 was “inactive” in each case. Moreover, in the assay with S. aureus RN4220, the growth inhibition call is “inactive”.
Turning to `C[C@H]1CCCCO[C@@H](CN(C)Cc2ccncc2)[C@@H](C)CN([C@@H](C)CO)C(=O)c2cc(NS(C)(=O)=O)ccc2O1`, the cytotoxicity call with HSkMC and in the assay with HepG2 was “inactive” each time. Besides, the growth inhibition call in the assay on S. aureus RN4220 is “inactive”.
In the case of `Cc1noc(C)c1NC(=O)Nc1ccc2c(c1)CC(=O)N([C@H](C)CO)C[C@@H](C)[C@@H](CN(C)S(=O)(=O)c1c(C)noc1C)O2`, the cytotoxicity call in the assay with HSkMC and in the assay with HepG2 was “inactive” each time. Besides, the growth inhibition call in the assay on S. aureus RN4220 was “inactive”.
In the case of `Nc1ccc(C(F)(F)F)cc1Cl`, the cytotoxicity call in the assay on HSkMC and with HepG2 was “inactive” throughout. The growth inhibition call with S. aureus RN4220 was “inactive”.
Regarding `Cc1noc(C)c1NC(=O)Nc1ccc2c(c1)CC(=O)N([C@@H](C)CO)C[C@H](C)[C@@H](CN(C)C(=O)NC(C)C)O2`, the cytotoxicity call in the assay with HSkMC and with HepG2 was “inactive” each time. Also, the growth inhibition call in the assay on S. aureus RN4220 was “inactive”.
Regarding `COc1ccc(NC(=O)Nc2ccc3c(c2)C(=O)N([C@@H](C)CO)C[C@@H](C)[C@@H](CN(C)C(=O)c2ccccc2)OCCCC[C@@H](C)O3)cc1`, the cytotoxicity call in the assay on HSkMC and in the assay with HepG2 was “inactive” in each case. Besides, the growth inhibition call with S. aureus RN4220 was “inactive”.
Take `CN(C)CC(=O)N[C@@H]1C=C[C@@H](CC(=O)O)O[C@@H]1CO`: the cytotoxicity call with HSkMC and with HepG2 was “inactive” each time. In addition, the growth inhibition call with S. aureus RN4220 was “inactive”.
For `C=CC[C@@H](CC(=O)N(CCO)Cc1ccccc1)C(=O)N[C@H](COC(=O)[C@H](CC=C)NC(=O)OCC1c2ccccc2-c2ccccc21)c1ccccc1`, the cytotoxicity call in the assay on HSkMC (human skeletal muscle cells) and in the assay on HepG2 was “inactive” each time. Further, the growth inhibition call with S. aureus RN4220 is “inactive”.
As for `CO[C@H]1CN(C)C(=O)c2cc(NS(C)(=O)=O)ccc2OC[C@H](C)N(C(=O)c2ccc3c(c2)OCO3)C[C@H]1C`, the cytotoxicity call with HSkMC and in the assay on HepG2 was “inactive” each time. Besides, in the assay on S. aureus RN4220, the growth inhibition call is “inactive”.
